Measured values from PubChem BioAssay AID1963576 (National Center for Advancing Translational Sciences (NCATS), 2024).
The campaign covered roughly 46,000 compounds. About 60 (0.1%) were called active. The inconclusive results got no clear call from the source; some entries with a clear call stand among them for comparison. The call rests on the fitted dose curve; in most records, active means well fitted inhibition curve with a large enough effect; inconclusive means small, poorly fitted or top-dose-only effect; inactive means no such curve, though single readings can be large or run the other way. Potencies beside an inconclusive call are fits to weak or partial responses and may not hold up.

Assay: Primary qHTS assay for Inhibitors of ovarian cancer metastasis using an organotypic tumor microenvironment (TME) model. Further: nearly all actives have a fitted effect of over 65% in size.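 On Potency: count of GFP cancer cells still attached after washing and fixation.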
Conditions: SKOV3ip1-GFP adhesion/invasion on 3D omental model, fluorescence; series mostly up to 45.8 µM
Procedure, shortened: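 Primary human omental fibroblast/mesothelial 3D culture pre-formed 48 h. SKOV3ip1-GFP cells added with compounds (0.36-46 umol/L), incubated 2 h RT/16 h 37 C, fixed; GFP cells quantified at 488/509 nm.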
Potency means the concentration at half of the fitted maximal effect; tags describe the fitted curve by direction and shape.

Potency, inactive:
COc1ccccc1CCNC(=O)C(=O)NCC(c1ccco1)S(=O)(=O)c1ccc(C)cc1 (configuration not stated)
O=C(NCCCN1CCN(c2ccccc2)CC1)c1ccc2nc(Cc3ccccc3)oc2c1
CC1CCCN(Cc2nc3c(c(=O)n(C)c(=O)n3C)n2Cc2ccc(Cl)cc2)C1 (configuration not stated)
CCN(Cc1ccccc1)C(=O)c1cc2c(=O)[nH]c3ccc(C)cc3c2s1
Cc1ccc(NC(=O)N2CCN(c3ccc(Cl)c(Cl)c3)CC2)cc1
Cc1ccc(CNCc2cccn2-c2nnc(N3CCCC3)s2)cc1
Cc1ccc(NC(=O)CSc2nc3n[nH]c(C)c3c(=N)n2-c2ccccc2C)cc1C
CCn1c(=O)c2cc(C(=O)NCCCN(C)Cc3ccccc3)sc2c2ccccc21
COc1cc2ncnc(Nc3cc(Br)c(O)c(Br)c3)c2cc1OC
Cc1cn(C)c(CC(=O)N2CCN(c3ccc(F)cc3)CC2)c1C(=O)O
COc1ccc(-c2nc(CSCC(=O)N3CCN(c4ccccc4F)CC3)c(C)o2)cc1
Cc1cccc(C)c1Nc1c(-c2ccccn2)nc2ccc(Cl)cn12
Cc1nc2cc(-c3cccc(F)c3)nn2c(C)c1CCC(=O)Nc1ccccc1C(N)=O
COc1ccc2cc(CNc3ccc(C)cc3)c(=O)n(CC(=O)Nc3ccc(C)cc3Cl)c2c1
COc1cc(OC)c(NC(=O)c2ccc(-n3cnc4cccnc43)cc2)cc1Cl
CCn1c(=O)c2cc(C(=O)NC3CCC(C)CC3)sc2c2ccccc21 (configuration not stated)
O=C(c1cc(-c2cccc(Cl)c2)on1)N1CCCCC1

Potency, inconclusive:
Cc1cc(C)c(S(=O)(=O)NCC(c2cccs2)S(=O)(=O)c2ccccc2)c(C)c1 (configuration not stated) 0.562 µM [inhibitor, full curve, poor fit]
Cc1cc(OCC(=O)N(Cc2ccc(N(C)C)cc2)CC2CCCO2)ccc1Cl (configuration not stated) 0.562 µM [inhibitor, full curve, poor fit]
CC[C@@]1([C@@H]2O[C@@H]([C@H]3O[C@@](O)(CO)[C@H](C)C[C@H]3C)C[C@H]2C)CC[C@H]([C@]2(C)CC[C@]3(C[C@H](O)[C@@H](C)[C@@H]([C@@H](C)[C@@H](OC)[C@H](C)C(=O)O)O3)O2)O1 2.04 µM [inhibitor, full curve]
COc1ccc(Nc2c3c(nc4ccc(NC(=O)c5ccc(F)cc5)cc24)CCCC3)cc1OC 35.5 µM [inhibitor, single point]
CC(C)c1ccc(NC(=O)CSc2nc3ccccc3nc2Cc2ccccc2)cc1 28.2 µM [inhibitor, single point]
CC1CCn2c(nc3cc(C(=O)NCc4ccc(OC(C)C)cc4)ccc32)C1 (configuration not stated) 35.5 µM [inhibitor, single point]
CCCCNC(=O)C1CCN(c2nc3ccccc3nc2C(F)(F)F)CC1 35.5 µM [inhibitor, single point]
CC1Cc2ccccc2N1S(=O)(=O)c1nnc(NC(=O)c2cccc(F)c2)s1 (configuration not stated) 35.5 µM [inhibitor, single point]
CC(C)c1ccc(NS(=O)(=O)c2ccc3[nH]cc(C(=O)NCCc4ccccc4)c(=O)c3c2)cc1 25.1 µM [inhibitor, single point]
CCS(=O)(=O)c1ncc(Cl)c(C(=O)Nc2ccccc2)n1 6.31 µM [inhibitor, full curve, poor fit]
CC(=O)c1cccc(NS(=O)(=O)c2cc(-c3cnc(C4CC4)o3)ccc2C)c1 35.5 µM [inhibitor, single point]
Nc1cccc(-c2cc3c(Oc4cccc(O)c4)ncnc3[nH]2)c1 13.2 µM [inhibitor, partial curve, poor fit]
Cc1cccc(NC(=O)CSc2nc3ccc(NC(=O)CCc4ccccc4)cc3s2)c1 35.5 µM [inhibitor, single point]
CCCOc1ccc(CN2C(=O)C(=O)c3cccc(C)c32)cc1 11.2 µM [inhibitor, partial curve, poor fit]
COc1cccc(CNC(=O)c2ccc3nc(CCc4ccccc4)oc3c2)c1OC 20 µM [inhibitor, single point]
Cc1cc(NC(=O)c2cc(-c3ccc(F)cc3)on2)nn1Cc1ccc(Cl)cc1 35.5 µM [inhibitor, partial curve, poor fit]
COc1ccc(Cl)cc1NC(=O)CSc1nc(=O)[nH]c2c1CCC2 35.5 µM [inhibitor, single point]
COc1ccc(Cn2c(CCC(=O)Nc3ccc(OC)c(Cl)c3)nc3cccnc32)cc1 5.62 µM [inhibitor, full curve, poor fit]
COc1ccc(Nc2c3c(nc4ccc(NC(=O)c5cc(Cl)ccc5OC)cc24)CCCC3)cc1OC 25.1 µM [inhibitor, single point]
COc1ccccc1Nc1c2c(nc3ccc(NC(=O)c4cccc(OC)c4OC)cc13)CCCC2 17.8 µM [inhibitor, partial curve, poor fit]
CCOc1ccc(N2CC(NC(=O)Cc3ccccc3)CC2=O)cc1 (configuration not stated) 35.5 µM [inhibitor, single point]
CC(C)c1ccc2oc(-c3cccc(NC(=O)c4ccc5c(c4)OCCO5)c3)nc2c1 35.5 µM [inhibitor, single point]
CCOc1ccc(/C=C/c2nc(C#N)c(Nc3ccc(OC)cc3)o2)cc1 3.16 µM [inhibitor, partial curve, poor fit]
COc1ccccc1Nc1c2c(nc3ccc(NC(=O)/C=C/c4cc(OC)c(OC)c(OC)c4)cc13)CCCC2 3.16 µM [inhibitor, full curve, poor fit]
CCCCNc1ccc(-c2nc(-c3ccncc3)no2)cc1[N+](=O)[O-] 20 µM [inhibitor, single point]
Cc1ccccc1Nc1c(-c2cccnc2)nc2cccc(C)n12 17.8 µM [inhibitor, single point]
Cn1nc(-c2ccc(OCC(=O)Nc3ccc(Cl)cc3)cc2)c2ccccc2c1=O 35.5 µM [inhibitor, single point]
Cc1ccc(S(=O)(=O)c2nc(-c3ccc(F)cc3)oc2SCC(=O)c2ccccc2)cc1 25.1 µM [inhibitor, single point]
COCCNC(=O)CCSc1nc(-c2ccc3c(c2)OCO3)cc(C(F)(F)F)n1 14.1 µM [inhibitor, single point]
COc1ccccc1CNC(=O)CCS(=O)(=O)c1ccc2c(c1)CC(C)N2C(=O)C1CC1 (configuration not stated) 35.5 µM [inhibitor, single point]
CC1=C(C(=O)Nc2ccc(C)cc2C)C(c2cccs2)n2nc(SCc3ccc(Cl)cc3)nc2N1 (configuration not stated) 11.2 µM [inhibitor, single point]
CCOc1ccc(NC(=O)c2cnn3c2NC(C)=C(C(=O)Nc2ccc(Cl)cc2)C3c2ccc(OC)c(OC)c2)cc1 (configuration not stated) 25.1 µM [inhibitor, single point]
CCC(Sc1nc2nccnc2c(=O)n1Cc1ccc(Cl)cc1)C(=O)NC1CCCCC1 (configuration not stated) 15.8 µM [inhibitor, single point]
COc1ccc(CNC(=O)c2cc(-c3ccc(OC)c(OC)c3)nc3n[nH]c(-c4ccc(C)cc4)c23)cc1 11.2 µM [inhibitor, partial curve]
COc1ccc(N2CCN(C(=O)CCCCn3c(=O)[nH]c4ccsc4c3=O)CC2)cc1 8.91 µM [inhibitor, single point]
O=C(NCCCN1CCN(c2ccccc2F)CC1)c1ccc2nc(Cc3ccccc3)oc2c1 35.5 µM [inhibitor, single point]
O=C(CCS(=O)(=O)c1ccc(Br)s1)Nc1cc(C(F)(F)F)cc(C(F)(F)F)c1 35.5 µM [inhibitor, single point]
COC(=O)c1c(-c2ccc(Cl)cc2)noc1N1CCN(c2ccccc2OC)CC1 22.4 µM [inhibitor, single point]
Cc1cc(Cl)ccc1NS(=O)(=O)c1c(C(=O)N2CCCCCC2)c(C)n(C)c1C 35.5 µM [inhibitor, single point]
CCCCN(CCCC)CCCNC(=O)c1cc(-c2ccc(Cl)s2)nc2ccccc12 35.5 µM [inhibitor, single point]
Cc1ccccc1-c1noc(-c2ccc(NCc3cccnc3)c([N+](=O)[O-])c2)n1 31.6 µM [inhibitor, single point]
O=C(NCCCN1CCN(c2ccc(F)cc2)CC1)Nc1ccccc1Cl 35.5 µM [inhibitor, single point]
Cc1ccc(NC(=O)Nc2cccc(C)n2)cc1 6.31 µM [inhibitor, full curve, poor fit]
CCOc1ccc(NC(=O)c2c(NCc3ccc(C)o3)sc3c2CCCCC3)cc1 12.6 µM [inhibitor, partial curve, poor fit]
O=C(c1ccccc1)c1cn(Cc2ccc(F)cc2)c2ccccc2c1=O 11.2 µM [inhibitor, partial curve, poor fit]
